Data reported in patent US20220249679A1 (Mitsubishi Tanabe Pharma Corporation, priority 2018, published 2022).

Experiment: Size exclusion chromatography (SEC), percent monomer
Assay type: physicochemical
Details: Table 19, after protein A purification
Protocol: The antibodies were purified utilizing pH dependent, protein A purification (HiTrap MabSelect SuRe 5 mL). After purification, the antibodies were buffer exchanged into 1× DPBS using zeba spin columns. The recovery and relative stability as determined by size exclusion chromatography (SEC) analysis varied between the humanized antibodies (SEC profiles not shown). The nomenclature sometimes takes the form of hF6 xky-rep where h stands for humanized, F6 stands for F12P16F6-derived, x stands for the first letter of the first procedure used to generate the humanized heavy chain sequence (e.g., x can be a=abb, s=sdr, f=fra, or c=cdr), k stands for kappa light chain, and y stands for the first letter of the first procedure used to generate the humanized light chain sequence (a=abb, s=sdr, f=fra, c=cdr).

B1: F6 cks-rep (hF6): humanized anti-CD138 IgG1/kappa antibody; VH SEQ ID NO:90, VL SEQ ID NO:41; heavy chain SEQ ID NO:93, light chain SEQ ID NO:44 (antibody)
heavy: QVQLVQSGAEVVKPGASVKLSCKASGYTFTSYYLYWVKKAPGQGLDWIGEIYPRSGGTNINEKFLSRVTLTADTSTSTAYLELSSLTSEDTAVYYCTRSLLYWGQGTTLTVSS[letters of human IgG1 constant region left out]
light: DVVMTQTPLSLSVTPGQPASISCKSSQSLLASDGKTYLNWLLQRPGQSPKRLIYLVSKLDSGVPNRFSGSGSGTDFTLQISRVEAEDVGLYYCWQGAHFPFTFGSGTKLEIKRTVAAPSVFIFPPSDEQLKSGTASVVCLLNNFYPREAKVQWKVDNALQSGNSQESVTEQDSKDSTYSLSSTLTLSKADYEKHKVYACEVTHQGLSSPVTKSFNRGEC
modifications: Humanized Heavy chain; Humanized Light chain variable region
SEC % Monomer: 99.3%
